Consider 1 molecule from the supplement of paper PMC8728848.

The other results are listed elsewhere or left out.

Common to all, as to assay: glycan array binding signal (z-score within array); higher = stronger binding
Common to all, as to settings: glycan notation: IUPAC condensed, linker removed

In assay [1] the target is Neu5Ac(a2-8)Neu5Ac(a2-3)[GalNAc(b1-4)]Gal(b1-4)Glc. In a few lines: (§1)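 Negative Z-scores can be read as non-binding. The Z-score is calculated within each array and then averaged across arrays of one protein sequence at different concentrations or buffers and across linkers. Arrays, 3228 in all, were curated from the Consortium for Functional Glycomics database and kept only where the protein sequence was available.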

Assay [2] has as its target Neu5Ac(a2-8)Neu5Ac(a2-8)Neu5Ac. An outline of the steps: as §1
For assay [3], the target named is Neu5Ac(a2-8)Neu5Ac(a2-8)Neu5Ac(a2-3)Gal(b1-4)Glc. In a few lines: as §1
The target of assay [4] is Neu5Ac(a2-8)Neu5Ac(a2-8)Neu5Ac(a2-3)[GalNAc(b1-4)]Gal(b1-4)Glc. An outline of the steps: as §1
Assay [5] addresses Neu5Ac(a2-8)Neu5Ac(a2-8)Neu5Ac(a2-8)Neu5Ac(a2-3)[GalNAc(b1-4)]Gal(b1-4)Glc. An outline of the steps: as §1
Another assay deals with Neu5Ac(b1-6)GalNAc. In a few lines: as §1
In assay [6] the target is Neu5Ac(b2-6)Gal(b1-4)GlcNAc. In a few lines:
as §1

Assay [7] concerns the target Neu5Ac9Ac(a2-6)Gal(b1-4)GlcNAc. An outline of the steps:
as §1

Assay [8] addresses Neu5Gc(a2-3)Gal(b1-3)GlcNAc. An outline of the steps:
as §1

The target of assay [9] is Neu5Gc(a2-3)Gal(b1-3)[Fuc(a1-4)]GlcNAc. In a few lines: as §1
A further assay deals with Neu5Gc(a2-3)Gal(b1-4)Glc. In a few lines:
as §1

The target of assay [10] is Neu5Gc(a2-3)Gal(b1-4)GlcNAc. An outline of the steps: as §1
In assay [11] the target is Neu5Gc(a2-3)Gal(b1-4)[Fuc(a1-3)]GlcNAc. An outline of the steps:
as §1

Assay [12] has as its target Neu5Gc(a2-6)Gal(b1-4)GlcNAc. In a few lines:
as §1

For a further assay, the target named is Neu5Gc(a2-6)GalNAc. In a few lines: as §1

B1: PMA (Polygonatum multiflorum) (protein)
chain: LLTTTLFVFISSTRSLASTNVLYSDVGNAILNAKESLIYGDYRLDMQSDCNLVLYNKAAPYWASGTRWSWGGNCHLNLQSNGELVMYAYLGRTRIAIWRSGIISATGSYALVLKYDGALHVHGPSLWSTNATGPTTPTTASWSIDSTLWSGDVATIGPTIANGDYKLELLDTCNLTLSNTKTGQVLWYTNTTDWVHDCYVNIEGNGELKIKYLGGATLWSNKVGAGYTNNYVLGLRPDGKLDTYNAPIWSPTIGPGVHVAPAVYNASSNAVAAEGNGEKIAMVTGRAKNST
B1: the “glycan array binding signal (z-score)” value in assay [1] is -0.241; in [2] it was -0.222; in [3] it was -0.239; in assay [4], -0.242; in assay [5], -0.245; with Neu5Ac(b1-6)GalNAc it was -0.248. Besides, the “glycan array binding signal (z-score)” value was -0.245 in assay [6]; -0.243 in assay [7]; -0.262 in [8]; 0.061 in [9]; -0.232 with Neu5Gc(a2-3)Gal(b1-4)Glc; -0.257 in assay [10]. For the same molecule, the “glycan array binding signal (z-score)” value is -0.258 in assay [11], -0.257 in assay [12] and -0.182 with Neu5Gc(a2-6)GalNAc.
